The results in this text go back to PMC5722342.

This experiment addresses MITA/STING, Q86WV6. As to the kind of experiment: co-IP; HEK293 cells transfected with the indicated plasmids; NP-40 lysis buffer (20 mM Tris-HCl pH 7.4, 150 mM NaCl, 1 mM EDTA, 1% Nonidet P-40); immunoprecipitation and immunoblot with the indicated antibodies (Fig 4A, 4C). The following applies: remark: other sources report otherwise. Background: Immunoblotting shows a protein as a band on a membrane.

These are yes or no findings as the source states them, for the method shown. In cells and extracts the contact can be indirect. Some binding calls cover weakened binding; strength is not graded here.

B1: inactive rhomboid protein 2 (iRhom2), Q6PJF5 1-856 (protein)
chain: MASADKNGGSVSSVSSSRLQSRKPPNLSITIPPPEKETQAPGEQDSMLPEGFQNRRLKKSQPRTWAAHTTACPPSFLPKRKNPAYLKSVSLQEPRSRWQESSEKRPGFRRQASLSQSIRKGAAQWFGVSGDWEGQRQQWQRRSLHHCSMRYGRLKASCQRDLELPSQEAPSFQGTESPKPCKMPKIVDPLARGRAFRHPEEMDRPHAPHPPLTPGVLSLTSFTSVRSGYSHLPRRKRMSVAHMSLQAAAALLKGRSVLDATGQRCRVVKRSFAFPSFLEEDVVDGADTFDSSFFSKEEMSSMPDDVFESPPLSASYFRGIPHSASPVSPDGVQIPLKEYGRAPVPGPRRGKRIASKVKHFAFDRKKRHYGLGVVGNWLNRSYRRSISSTVQRQLESFDSHRPYFTYWLTFVHVIITLLVICTYGIAPVGFAQHVTTQLVLRNKGVYESVKYIQQENFWVGPSSIDLIHLGAKFSPCIRKDGQIEQLVLRERDLERDSGCCVQNDHSGCIQTQRKDCSETLATFVKWQDDTGPPMDKSDLGQKRTSGAVCHQDPRTCEEPASSGAHIWPDDITKWPICTEQARSNHTGFLHMDCEIKGRPCCIGTKGSCEITTREYCEFMHGYFHEEATLCSQVHCLDKVCGLLPFLNPEVPDQFYRLWLSLFLHAGVVHCLVSVVFQMTILRDLEKLAGWHRIAIIFILSGITGNLASAIFLPYRAEVGPAGSQFGLLACLFVELFQSWPLLERPWKAFLNLSAIVLFLFICGLLPWIDNIAHIFGFLSGLLLAFAFLPYITFGTSDKYRKRALILVSLLAFAGLFAALVLWLYIYPINWPWIEHLTCFPFTSRFCEKYELDQVLH
Turning to B1, the binding result was “binds”.
